According to patent US20120276193A1 (CYTOGUIDE A S, published 2012):

Molecular target: human CD163 on cells (human) (UniProt Q86VB7)
Experiment: flow cytometry, human mononuclear cells from buffy coats stained with Mac2-158-FITC, anti-CD14-PE and KN2/NRY-Alexa Fluor647

B1: KN2/NRY (antibody)
heavy: QVQLQESGPGLVKPSETLSLTCTVSGYSITSDYAWNWIRQFPGNKLEWMGYITYSGSTYYNPSLKSRVTISVDTSKNQFSLKLSSVTAADTATYYCVSGTYYFDYWGQGTTLTVSSASTKGPSVFPLAPCSRSTSESTAALGCLVKDYFPEPVTVSWNSGALTSGVHTFPAVLQSSGLYSLSSVVTVPSSSLGTKTYTCNVDHKPSNTKVDKRV[left out - human IgG4 Fc]
light: DIVMTQSPSSLSASVGDRVTITCRASQSVSSDVAWFQQKPGKSPKPLIYYASNRYSGVPSRFSGSGSGTDFTLTISSLQAEDFAVYFCGQDYTSPRTFGGGTKLEIKRTVAAPSVFIFPPSDEQLKSGTASVVCLLNNFYPREAKVQWKVDNALQSGNSQESVTEQDSKDSTYSLSSTLTLSKADYEKHKVYACEVTHQGLSSPVTKSFNRGEC
modifications: HRP, Alexa Fluor647 or dexamethasone conjugates in some assays are not carried by the letters
With B1 as the binder, how does the share of cells in the upper left quadrant (KN2/NRY-Alexa Fluor 647 positive, CD14-PE negative) read?
The share of cells in the upper left quadrant (KN2/NRY-Alexa Fluor 647 positive, CD14-PE negative) was 0.72%.

What about the share of cells in the upper left quadrant (KN2/NRY-Alexa Fluor 647 positive, Mac2-158-FITC negative) of the same binder?
Its share of cells in the upper left quadrant (KN2/NRY-Alexa Fluor 647 positive, Mac2-158-FITC negative) is 11.7%.

What about the share of cells in the upper right quadrant (KN2/NRY-Alexa Fluor 647 positive, CD14-PE positive) of the same binder?
The share of cells in the upper right quadrant (KN2/NRY-Alexa Fluor 647 positive, CD14-PE positive) was 82.2%.

What about the share of cells in the upper right quadrant (positive for both KN2/NRY-Alexa Fluor 647 and Mac2-158-FITC) of the same binder?
Its share of cells in the upper right quadrant (positive for both KN2/NRY-Alexa Fluor 647 and Mac2-158-FITC) is 70.7%.
